# ChEMBL document CHEMBL4888484, “Replenishing the malaria drug discovery pipeline: Screening and hit evaluation of the MMV Hit Generation Library 1 (HGL1) against asexual blood stage Plasmodium falciparum ,using a nano luciferase reporter read-out” (2022)
# Screen size: about 150,000 compounds; about 540 (0.36%) showed an effect of 50% or more. Some of the results follow.
# System: Plasmodium falciparum
# Assay: Primary screen in NF54 nanoGlo assay, in single point, at 2uM, 72h; a lower Z score goes with more inhibition
# Format: functional, Erythrocyte
# Conditions: timepoint 72 hour
Structure (SMILES),% Inhibition [%],Z score
CC[C@H](CNC(=O)c1cnc2ccccn2c1=O)Cc1ccccc1,-14,2.87
O=C(NCc1ccccc1)NC[C@H](c1ccc(F)cc1)c1c[nH]c2ccccc12,-5,0.87
N#Cc1cn[nH]c1NC(=O)C(=O)NC1Cc2ccccc2C1,-11,1.64
Cc1nc(C(=O)Nc2[nH]c(=O)ncc2F)c(-c2ccccc2)o1,80,-7.61
Cn1ccc2c(-c3cc(N)nc(N4CCCC4)n3)ccnc21,11,-1.46
Cc1nc(-c2ccc(S(=O)(=O)N3CCCCC3)cc2)cs1,-10,1.18
COc1ccc(CN2Cc3nc(C)[nH]c(=O)c3C2)c(C)c1C,3,-0.51
Cc1cc(-c2cccc(C(=O)N[C@H]3CCCNC3=O)c2)ccc1Cl,-9,1.77
CCc1ccc(CN2CC(O)(CC#N)C2)cc1,8,-1.45
O=C1NC(=O)C2(CCCC2CNC(=O)c2ccncc2Br)N1 (stereo unspecified),-19,3.53
Cc1cc(C)nc(-n2cnc3ccccc32)n1,-1,0.21
CC(C)CCn1c(=O)c2ccccc2n(CC(=O)N(C)c2cccc(Cl)c2)c1=O,6,-0.88
O=C(Cc1cccnc1)N[C@H]1CC(=O)N(Cc2cccc(F)c2)C1,-9,1.76
COc1ccc(NC(=O)C2CCC(Cn3cnnn3)CC2)cc1Cl (stereo unspecified),-14,1.76
Fc1cnc(N2CCOCC2)nc1N1CCOCC1,-8,1.41
COc1ccc(CN2C[C@H]3CN(S(C)(=O)=O)CCN3C2=O)cc1,-6,0.91
Cc1ccc(S(=O)(=O)c2ncccc2CNCCCO)cc1,2,-0.19
c1ccc(COCc2n[nH]c3c2CN(Cc2cnn4cccnc24)CC3)cc1,-10,1.85
N[C@H]1CCN(C(=O)NCc2ccc(Cl)cc2Cl)C1,-10,0.95
COc1ccnc(N2CC[C@@H](Oc3ccncc3)C2)n1,-7,0.8
CC(CC(=O)N(CC(=O)N1c2ccccc2-n2cccc2C1c1cccc(Cl)c1)C1CC1)CC(C)(C)C (stereo unspecified),-5,1.02
Cc1cc(C(=O)N(C)[C@@H](C)c2nccs2)nc(C)n1,1,-0.21

Structure (SMILES),% Inhibition [%],Z score
Cc1ocnc1C(=O)N1CCC(C(=O)N2CCCC2)CC1,-19,2.66
C[C@H]1CN(CC(=O)Nc2nc3ccc(F)cc3s2)CCO1,-10,1.58
COc1cc(C(=O)N2C[C@]3(C)C[C@H]2CC(C)(C)C3)ccc1OC1CCN(C(C)=O)CC1,-12,1.14
CCNC(=O)N1CCN(c2nc(C3CC3)nc3c2cnn3-c2ccc(OC)cc2)CC1,-8,1.03
Cc1noc([C@@H]2CCCCCN2C(=O)COc2ccccc2)n1,-6,1.24
CC1CN(C(=O)c2cn(Cc3ccccc3)nc2-c2ccccc2)C1,1,-0.11
Cc1ccccc1OC[C@H](O)C(=O)N1CCC2(CC1)C(=O)N(C)C(=O)N2C,0,0.05
Cc1cc(CNC(=O)C(=O)NCC(F)(F)F)c(C)o1,8,-1.04
CCn1cc(Br)cc1C(=O)NCC1(N2CCCCC2)CCN(C)CC1,2,-0.35
O=C1N(CC2CCCCC2)CCC[C@@]12CCN(Cc1ccncc1)C2,-15,1.32
O=C(N[C@H]1C[C@@](CO)(c2ccccc2)C1)c1cccc(C#CCO)c1,-6,0.67
COCCNC(=O)c1cnc(-c2cc(OC)c(OC)c(OC)c2)nc1N(C)C1CCCCC1,-1,0.23
C[C@H]1Cc2ccccc2N1CCNc1nc2ccccc2o1,-6,0.82
COc1ccc(C)cc1S(=O)(=O)C1CS(=O)(=O)CC1NCCCc1ccccc1 (stereo unspecified),-1,0.15
Cn1cc(C(=O)N[C@H]2CC3(CCCCC3)Oc3ccccc32)ccc1=O,-5,0.8
COc1ccc2c(=O)c(C(=O)c3ccncc3)cn(CC(=O)NCc3ccccc3Cl)c2c1,-14,1.8
O=C(NCc1ccccn1)c1cc(-c2cccc3ccccc23)[nH]n1,31,-3.56
O=C1OCCN1CCOc1cc(F)ccc1F,1,-0.12
N#CCCN(Cc1cnns1)CC1CC1,-20,2.85
COc1ccc2c(c1)[C@@H](NCCN(C)C)CCCO2,-12,1.36
Cc1cccc(OCC(=O)Nc2ccc3c(c2)C(=O)N(C)c2ccccc2O3)c1,-8,1.58
